# Results as given in paper PMC13083723 (Patterns, 2026).
# The whole screen tested about 5,400 compounds, of which about 190 (3.5%) showed an effect of 50% or more. The list shows a part of the results. Positions of bridges follow the written chain, without caps; N, C: chain ends. Non-standard residues stand in square brackets, D forms with d. Residues, ends and D or L forms follow the SMILES beside them. *: point of attachment. X1 = CCC(C)C(N)C1=NC(C(=O)*)CS1; dOrn = NCCC[C@@H](N)C(=O)O
# System: Vero-E6
# Assay: primary screen, phospholipidosis by LipidTOX staining; higher = more effect of the substance
# Details: 10 µM
# How it was run: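 Single-concentration screen at 10 μM, with DMSO 0.1 v/v % and amiodarone 10 μM as controls. Read-out is LipidTOX Red phospholipid staining, which tolerates aldehyde fixation, in Vero-E6 cells.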
row,Compound,result_ITMP [%]
1,Oc1cccc2cccnc12,-3.64
2,Nc1nc2c(ncn2[C@@H]2O[C@H](CO)[C@@H](O)[C@H]2O)c(=O)[nH]1,-4.89
3,COC(=O)Nc1nc2cc(C(=O)c3ccccc3)ccc2[nH]1,2.13
4,Nc1nc2c(c(=O)[nH]1)C[C@@H](CCc1ccc(C(=O)N[C@@H](CCC(=O)O)C(=O)O)cc1)CN2,3.51
5,CC1(C)S[C@@H]2[C@H](NC(=O)[C@H](NC(=O)N3CCNC3=O)c3ccccc3)C(=O)N2[C@H]1C(=O)O,-1.89
6,OCc1ccc(CO)o1,0.61
7,N#C/C(=C\c1ccc(O)cc1)C(=O)O,-1.1
8,CC(C)c1ccc2oc3nc(N)c(C(=O)O)cc3c(=O)c2c1,-4.3
9,CC(C)c1ccc(CC(=O)N2CCC[C@@H](c3cccc(OC(C)(C)C(=O)O)c3)C2)cc1,-0.97
10,CCn1c2ccccc2c2cc(Nc3ccnc(NCCCN4CCOCC4)n3)ccc21,57.6
11,COc1cccc([C@@H](C)NCCCc2ccccc2Cl)c1,70.1
12,COc1ccc(CCN)cc1OC,-4.61
13,CCCCCCc1ccc(O)cc1O.Nc1c2ccccc2nc2ccccc12,42.4
14,Cl/C=C\C[N+]12CN3CN(CN(C3)C1)C2,-3.36
15,O=C1[C@H](Cc2ccc(O)cc2)N2C(=O)CCN(C(=O)NCc3ccccc3)[C@H]2CN1Cc1cccc2ccccc12,-10.9
16,O=C(NCC1(N2CCN(c3ccccc3)CC2)CCOCC1)c1cccnc1Sc1ccccc1,6.86
17,CN[C@H](C(=O)N[C@H](C(=O)N(C)[C@H](/C=C(\C)C(=O)O)C(C)C)C(C)(C)C)C(C)(C)c1ccccc1,0.85
18,CC(=O)Nc1ccccc1,-3.98
19,O=C(/C=C/c1ccc2ccccc2n1)c1ccncc1,-10
20,Cc1cc(C(N)=O)ccc1-n1c(CCC(=O)O)ccc1-c1ccc(-n2ccnc2)cc1,-0.5

row,Compound,result_ITMP [%]
1,CCCN1C[C@H](CSC)C[C@@H]2c3cccc4[nH]cc(c34)C[C@H]21,1.51
2,CSc1ccc2c(c1)C(N1CCN(C)CC1)Cc1ccccc1S2 (stereo not drawn),79.9
3,COc1ccc([C@]2(O)CC[C@H](N3CC[C@@H](NC(=O)CNC(=O)c4cccc(C(F)(F)F)c4)C3)CC2)cn1,-6.31
4,C[C@H]1COc2c(C3(N)CC3)c(F)cc3c(=O)c(C(=O)O)cn1c23,-1.97
5,CC(C(=O)O)c1ccc2c(c1)Cc1cccnc1O2 (stereo not drawn),-4.04
6,CCC(C)C(N)C1=NC(C(=O)N[C@@H](CC(C)C)C(=O)N[C@H](CCC(=O)[O-])C(=O)N[C@H](C(=O)N[C@H]2CCCCNC(=O)[C@H](CC(N)=O)NC(=O)[C@@H](CC(=O)[O-])NC(=O)[C@@H](Cc3cnc[nH]3)NC(=O)[C@@H](Cc3ccccc3)NC(=O)[C@@H]([C@H](C)CC)NC(=O)[C@@H](CCCN)NC2=O)[C@@H](C)CC)CS1 (stereo partly drawn) (X1-L[dE]IK[dOrn][dI][dF][dH][dD]N; lactam 4-C),-3.81
7,Cc1c(C)c2c(c(C)c1O)CCC(C)(COc1ccc(CC3SC(=O)NC3=O)cc1)O2 (stereo not drawn),-3.62
8,Cc1ccccc1-c1cc(N2CCN(C)CC2)ncc1N(C)C(=O)C(C)(C)c1cc(C(F)(F)F)cc(C(F)(F)F)c1,-0.61
9,COC(c1ccccc1)(c1ccccc1)[C@H](Oc1nc(C)cc(C)n1)C(=O)O,-4.63
10,O=C1NC(=S)NC(=O)C1C(=O)Nc1ccccc1,-8.79
11,CC(=O)Nc1ccc(Cc2ccc(NC(C)=O)cc2)cc1,-4.6
12,O=C(NO)c1ccc(O)c(O)c1,-2.75
13,CCOc1nc2cccc(C(=O)OC(C)OC(=O)OC3CCCCC3)c2n1Cc1ccc(-c2ccccc2-c2nnn[nH]2)cc1 (stereo not drawn),-3.73
14,COC(=O)C1=C(C)NC(C)=C(C(=O)OCCN2CCN(C(c3ccccc3)c3ccccc3)CC2)C1c1cccc([N+](=O)[O-])c1 (stereo not drawn),11.6
15,COc1cccc(-c2cc(NCc3ccc4c(c3)OCO4)nc(N)n2)c1,4.88
16,COc1cc(S(C)=O)ccc1-c1nc2ncccc2[nH]1 (stereo not drawn),-8.57
17,CCN(CC)CCCCNc1ncc2cc(-c3c(Cl)cccc3Cl)c(NC(=O)NC(C)(C)C)nc2n1,69.2
18,C[C@@H]([C@H](O)c1ccccc1)N(C)C,-15.3
19,COc1ccc([C@@H]2CC(=O)c3c(O)cc(O[C@@H]4O[C@H](CO[C@@H]5O[C@@H](C)[C@H](O)[C@@H](O)[C@H]5O)[C@@H](O)[C@H](O)[C@H]4O)cc3O2)cc1O,0.24
